According to PMC12820563:
The other results are listed elsewhere or left out. The list includes weakly bound sequences.

target: T1, MBP-FoxP3dN (UniProt Q99JB6); experiment: PD-seq (MBP pull-down with sequencing); settings: 20 mM Tris-HCl pH 7.5, 100 mM NaCl, 1.5 mM MgCl2, 0.4 uM protein, 0.1 uM dsDNA library, 30 min, room temperature, amylose pull-down; high values mean tight binding; double strand, one strand shown
T1 sequence: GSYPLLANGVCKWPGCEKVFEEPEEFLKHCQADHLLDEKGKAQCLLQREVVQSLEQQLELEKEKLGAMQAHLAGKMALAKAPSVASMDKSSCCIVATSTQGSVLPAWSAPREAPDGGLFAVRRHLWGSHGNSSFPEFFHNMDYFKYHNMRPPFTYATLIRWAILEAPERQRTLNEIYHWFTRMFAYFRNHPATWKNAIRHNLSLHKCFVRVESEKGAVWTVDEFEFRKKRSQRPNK

Sequence	binding signal (RPM ratio (pull-down/input))
GATGATTGTTCTCCCAGCTGATGAATTACTGCCCTCGAGTAAACAAATTTTCCTAATCTTTCTGTTCAAGCGCCATCTAC	0.441
GATGATTGTTCTCCCAGCTGATGAATTAAAGAGTTCGAGTAAACAAATTTTCCTAATCTTTCTGTTCAAGCGCCATCTAC	0.326
GATGATTGTTCTCCCAGCTGATGAATTTGGGATGTCGAGTAAACAAATTTTCCTAATCTTTCTGTTCAAGCGCCATCTAC	0.587
GATGATTGTTCTCCCAGCTGATGAATTCAAGCCCTCGAGTAAACAAATTTTCCTAATCTTTCTGTTCAAGCGCCATCTAC	0.48
GATGATTGTTCTCCCAGCTGATGAATTACTTCAATCGAGTAAACAAATTTTCCTAATCTTTCTGTTCAAGCGCCATCTAC	0.25
GATGATTGTTCTCCCAGCTGATGAATTTATCCAGTCGAGTAAACAAATTTTCCTAATCTTTCTGTTCAAGCGCCATCTAC	0.301
GATGATTGTTCTCCCAGCTGATGAATTTGGACAATCGAGTAAACAAATTTTCCTAATCTTTCTGTTCAAGCGCCATCTAC	0.497
GATGATTGTTCTCCCAGCTGATGAATTGTGACTATCGAGTAAACAAATTTTCCTAATCTTTCTGTTCAAGCGCCATCTAC	1.16
GATGATTGTTCTCCCAGCTGATGAATTTTGATACTCGAGTAAACAAATTTTCCTAATCTTTCTGTTCAAGCGCCATCTAC	1.31
GATGATTGTTCTCCCAGCTGATGAATTTCCTTAGTCGAGTAAACAAATTTTCCTAATCTTTCTGTTCAAGCGCCATCTAC	0.223
GATGATTGTTCTCCCAGCTGATGAATTATTGGGTTCGAGTAAACAAATTTTCCTAATCTTTCTGTTCAAGCGCCATCTAC	0.724
GATGATTGTTCTCCCAGCTGATGAATTGCCCAGGTCGAGTAAACAAATTTTCCTAATCTTTCTGTTCAAGCGCCATCTAC	0.296
GATGATTGTTCTCCCAGCTGATGAATTCCAAGTGTCGAGTAAACAAATTTTCCTAATCTTTCTGTTCAAGCGCCATCTAC	0.347
GATGATTGTTCTCCCAGCTGATGAATTCCAATGTTCGAGTAAACAAATTTTCCTAATCTTTCTGTTCAAGCGCCATCTAC	0.646
GATGATTGTTCTCCCAGCTGATGAATTGTAGCCATCGAGTAAACAAATTTTCCTAATCTTTCTGTTCAAGCGCCATCTAC	1.99
GATGATTGTTCTCCCAGCTGATGAATTCCCGCTATCGAGTAAACAAATTTTCCTAATCTTTCTGTTCAAGCGCCATCTAC	0.638
GATGATTGTTCTCCCAGCTGATGAATTGCCACATTCGAGTAAACAAATTTTCCTAATCTTTCTGTTCAAGCGCCATCTAC	1.63
GATGATTGTTCTCCCAGCTGATGAATTGCATCAATCGAGTAAACAAATTTTCCTAATCTTTCTGTTCAAGCGCCATCTAC	3.31
GATGATTGTTCTCCCAGCTGATGAATTGCAGTGCTCGAGTAAACAAATTTTCCTAATCTTTCTGTTCAAGCGCCATCTAC	0.811
GATGATTGTTCTCCCAGCTGATGAATTTAAGGCCTCGAGTAAACAAATTTTCCTAATCTTTCTGTTCAAGCGCCATCTAC	0.484
GATGATTGTTCTCCCAGCTGATGAATTAGGTTCGTCGAGTAAACAAATTTTCCTAATCTTTCTGTTCAAGCGCCATCTAC	0.786

Sequence	binding signal (RPM ratio (pull-down/input))
GATGATTGTTCTCCCAGCTGATGAATTCCAATGATCGAGTAAACAAATTTTCCTAATCTTTCTGTTCAAGCGCCATCTAC	0.367
GATGATTGTTCTCCCAGCTGATGAATTCTTCGTCTCGAGTAAACAAATTTTCCTAATCTTTCTGTTCAAGCGCCATCTAC	0.284
GATGATTGTTCTCCCAGCTGATGAATTGCATGTGTCGAGTAAACAAATTTTCCTAATCTTTCTGTTCAAGCGCCATCTAC	2.29
GATGATTGTTCTCCCAGCTGATGAATTGATCGGGTCGAGTAAACAAATTTTCCTAATCTTTCTGTTCAAGCGCCATCTAC	0.262
GATGATTGTTCTCCCAGCTGATGAATTGAAGGCATCGAGTAAACAAATTTTCCTAATCTTTCTGTTCAAGCGCCATCTAC	0.843
GATGATTGTTCTCCCAGCTGATGAATTACCTTCATCGAGTAAACAAATTTTCCTAATCTTTCTGTTCAAGCGCCATCTAC	0.374
GATGATTGTTCTCCCAGCTGATGAATTAGGGGAGTCGAGTAAACAAATTTTCCTAATCTTTCTGTTCAAGCGCCATCTAC	0.337
GATGATTGTTCTCCCAGCTGATGAATTGCGTATGTCGAGTAAACAAATTTTCCTAATCTTTCTGTTCAAGCGCCATCTAC	3.03
GATGATTGTTCTCCCAGCTGATGAATTTAGCGGTTCGAGTAAACAAATTTTCCTAATCTTTCTGTTCAAGCGCCATCTAC	0.737
GATGATTGTTCTCCCAGCTGATGAATTTCATAAATCGAGTAAACAAATTTTCCTAATCTTTCTGTTCAAGCGCCATCTAC	0.207
GATGATTGTTCTCCCAGCTGATGAATTAATCGTATCGAGTAAACAAATTTTCCTAATCTTTCTGTTCAAGCGCCATCTAC	0.651
GATGATTGTTCTCCCAGCTGATGAATTAATTAGCTCGAGTAAACAAATTTTCCTAATCTTTCTGTTCAAGCGCCATCTAC	1.1
GATGATTGTTCTCCCAGCTGATGAATTAGCACTATCGAGTAAACAAATTTTCCTAATCTTTCTGTTCAAGCGCCATCTAC	0.544
GATGATTGTTCTCCCAGCTGATGAATTAGGAACGTCGAGTAAACAAATTTTCCTAATCTTTCTGTTCAAGCGCCATCTAC	0.293
GATGATTGTTCTCCCAGCTGATGAATTGAGCAACTCGAGTAAACAAATTTTCCTAATCTTTCTGTTCAAGCGCCATCTAC	4.74
GATGATTGTTCTCCCAGCTGATGAATTGGAGAATTCGAGTAAACAAATTTTCCTAATCTTTCTGTTCAAGCGCCATCTAC	0.639
GATGATTGTTCTCCCAGCTGATGAATTTCCGGCGTCGAGTAAACAAATTTTCCTAATCTTTCTGTTCAAGCGCCATCTAC	0.353
GATGATTGTTCTCCCAGCTGATGAATTGTAGTCCTCGAGTAAACAAATTTTCCTAATCTTTCTGTTCAAGCGCCATCTAC	0.959
GATGATTGTTCTCCCAGCTGATGAATTAGCAGATTCGAGTAAACAAATTTTCCTAATCTTTCTGTTCAAGCGCCATCTAC	0.29
GATGATTGTTCTCCCAGCTGATGAATTTCTGTTGTCGAGTAAACAAATTTTCCTAATCTTTCTGTTCAAGCGCCATCTAC	1.28
GATGATTGTTCTCCCAGCTGATGAATTTAGGTGGTCGAGTAAACAAATTTTCCTAATCTTTCTGTTCAAGCGCCATCTAC	0.58

Sequence	binding signal (RPM ratio (pull-down/input))
GATGATTGTTCTCCCAGCTGATGAATTCAAAACGTCGAGTAAACAAATTTTCCTAATCTTTCTGTTCAAGCGCCATCTAC	0.352
GATGATTGTTCTCCCAGCTGATGAATTCTTCGGCTCGAGTAAACAAATTTTCCTAATCTTTCTGTTCAAGCGCCATCTAC	0.175
GATGATTGTTCTCCCAGCTGATGAATTACCGCGGTCGAGTAAACAAATTTTCCTAATCTTTCTGTTCAAGCGCCATCTAC	0.284
GATGATTGTTCTCCCAGCTGATGAATTAGTCTTTTCGAGTAAACAAATTTTCCTAATCTTTCTGTTCAAGCGCCATCTAC	0.639
GATGATTGTTCTCCCAGCTGATGAATTTTGTGAATCGAGTAAACAAATTTTCCTAATCTTTCTGTTCAAGCGCCATCTAC	0.828
GATGATTGTTCTCCCAGCTGATGAATTTCTTTGTTCGAGTAAACAAATTTTCCTAATCTTTCTGTTCAAGCGCCATCTAC	2.28
GATGATTGTTCTCCCAGCTGATGAATTAACGCAGTCGAGTAAACAAATTTTCCTAATCTTTCTGTTCAAGCGCCATCTAC	0.599
GATGATTGTTCTCCCAGCTGATGAATTAGCAGTGTCGAGTAAACAAATTTTCCTAATCTTTCTGTTCAAGCGCCATCTAC	0.643
GATGATTGTTCTCCCAGCTGATGAATTTCTTAGTTCGAGTAAACAAATTTTCCTAATCTTTCTGTTCAAGCGCCATCTAC	0.645
GATGATTGTTCTCCCAGCTGATGAATTCATTGGTTCGAGTAAACAAATTTTCCTAATCTTTCTGTTCAAGCGCCATCTAC	2.03
GATGATTGTTCTCCCAGCTGATGAATTTCCAGTCTCGAGTAAACAAATTTTCCTAATCTTTCTGTTCAAGCGCCATCTAC	0.251
GATGATTGTTCTCCCAGCTGATGAATTACGGGCGTCGAGTAAACAAATTTTCCTAATCTTTCTGTTCAAGCGCCATCTAC	0.56
GATGATTGTTCTCCCAGCTGATGAATTATGGGATTCGAGTAAACAAATTTTCCTAATCTTTCTGTTCAAGCGCCATCTAC	0.447
GATGATTGTTCTCCCAGCTGATGAATTCTGGACGTCGAGTAAACAAATTTTCCTAATCTTTCTGTTCAAGCGCCATCTAC	0.242
GATGATTGTTCTCCCAGCTGATGAATTGTCGTAGTCGAGTAAACAAATTTTCCTAATCTTTCTGTTCAAGCGCCATCTAC	0.56
GATGATTGTTCTCCCAGCTGATGAATTAAAGGGGTCGAGTAAACAAATTTTCCTAATCTTTCTGTTCAAGCGCCATCTAC	0.279
GATGATTGTTCTCCCAGCTGATGAATTTGCCACTTCGAGTAAACAAATTTTCCTAATCTTTCTGTTCAAGCGCCATCTAC	2.63
GATGATTGTTCTCCCAGCTGATGAATTTTATGATTCGAGTAAACAAATTTTCCTAATCTTTCTGTTCAAGCGCCATCTAC	3.35
GATGATTGTTCTCCCAGCTGATGAATTGAGGCTCTCGAGTAAACAAATTTTCCTAATCTTTCTGTTCAAGCGCCATCTAC	0.908
GATGATTGTTCTCCCAGCTGATGAATTTCCCAGCTCGAGTAAACAAATTTTCCTAATCTTTCTGTTCAAGCGCCATCTAC	0.241
GATGATTGTTCTCCCAGCTGATGAATTAAGATGTTCGAGTAAACAAATTTTCCTAATCTTTCTGTTCAAGCGCCATCTAC	0.986
